The target in the assay is human CD117 on CD117 expressing cells (Kasumi-1 cells; primary human CD34+ bone marrow cells) (human), P10721. Briefly: cell-based or functional assay.

B1: Antibody 58 (antibody, human IgG1, kappa)
heavy: [sequence of about 100 residues not given]GPPTYHTNYYYMDVWGKGTTVTVSS[sequence of human IgG1 constant region not given]
light: DIQMTQSPSSVSASVGDRVTITCRASQGISSWLAWYQQKPGKAPKLLIYAASSLQSGVPSRFSGSGSGTDFTLTISSLQPEDFATYYCQQTNSFPYTFGGGTKVEIKRTVAAPSVFIFPPSDEQLKSGTASVVCLLNNFYPREAKVQWKVDNALQSGNSQESVTEQDSKDSTYSLSSTLTLSKADYEKHKVYACEVTHQGLSSPVTKSFNRGEC
B1 displayed an AUC Kasumi-1 Killing (AUC hIgG1 - AUC MAC ID#); IgG pre-incubated with anti-human Fab-saporin, Celltiter Glo of 97400.

B2: Antibody 61 (antibody, human IgG1, kappa)
heavy: EVQLLESGGGLVQPGGSLRLSCAASGFTFSSYVMIWVRQAPGKGLEWVSSISGDSVTTYYADSVKGRFTISRDNSKNTLYLQMNSLRAEDTAVYYCAKGPPTYHTNYYYMDVWGKGTTVTVSS[sequence of human IgG1 constant region not given]
light: B1 light
Molecule B2 gave an AUC Kasumi-1 Killing (AUC hIgG1 - AUC MAC ID#); IgG pre-incubated with anti-human Fab-saporin, Celltiter Glo of 78600.

The record behind these values is patent US20190144558A1.
